Data taken from paper PMC12136788.
This is one part of the list.

T1: UNK ZnF1-3 (human, UniProt Q9C0B0 31-174)
T1 sequence: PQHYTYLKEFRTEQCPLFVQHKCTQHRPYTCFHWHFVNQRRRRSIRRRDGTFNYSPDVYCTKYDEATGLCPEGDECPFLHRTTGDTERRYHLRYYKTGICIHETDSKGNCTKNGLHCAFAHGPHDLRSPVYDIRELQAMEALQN

B1: chr9:91949571:91949572:+_ENSG00000187742_ENST00000375807|hu_mus|FALSE|FALSE (ssRNA)
RNA: GGGAGUUCUACAGUCCGACGAUCAUAAACACGCUUUUCUCUGUUGUAGGAAGGAUUUGAAGAUAAAGCCUCAGAUGUCACACUAACAUUUUUAGCAUCAGCUGAUGAAGUAGUCUUCUUUAGGUUUAUCAUGGAAGUCACAUUCAACAGAGGAUUGAGCAUCA
B2: chr16:94664741:94664742:+_ENSMUSG00000040785_ENSMUST00000117648|mus_hu|mus_mus_mus_hu_False|48_108 (ssRNA)
RNA: GGGAGUUCUACAGUCCGACGAUCUGGCAUGGAUCUUGGUAGCUGAUAUUCAGGAGAAAGGCUGGCCAAGGGUGUAUAUAUGCUGGUGAACUGCGACAAACCUGGUAACACGUUUAUGUAUGCUGGCGGUGUCUGGGUGAUAUCCAACAGAGGAUUGAGCAUCA
B3: chr11:69466387:69466388:+_ENSG00000110092_ENST00000227507|hu_mus|FALSE|FALSE (ssRNA)
RNA: GGGAGUUCUACAGUCCGACGAUCUUAAAAACAUAUAAAAGAAUCAAAACUCCUUCUCAAGACUUCCCCUGUGUUAAUCCUACUCUUAGAACAGACAAGCACAUUAAUAGAAAACUAGUUGAUUACUGGGGUACAGAAUUCUAUCAACAGAGGAUUGAGCAUCA
B4: chr8:59359966:59359967:+_ENSG00000215114_ENST00000399598|hu_hu|motif|central (ssRNA)
RNA: GGGAGUUCUACAGUCCGACGAUCCGCAAAUUCAGGACGAGACUGUACAAUAAAGUUCCGGACAUCCAGGAUCCUGUGUGUACGGUUGAAUCUUUGUAUCAAACGACUCCCAUCUGCUAACCUGAUUUGAAUUUUUGUUGUUGGCAACAGAGGAUUGAGCAUCA
B5: chr2:155483576:155483577:-_ENSMUSG00000038324_ENSMUST00000041059|mus_hu|FALSE|FALSE (ssRNA)
RNA: GGGAGUUCUACAGUCCGACGAUCUUGAGCAUUUUUGGCAAGAAGCGUGUGCUUGUCAUCAUUCCCUGUAUCCAUCUCUGAAAUGGUGACAGCCAGAAUCCGGCAGAAAUUAGCGAGCUGCUGCUGAUCGAAAUUGGAUACUAACAACAGAGGAUUGAGCAUCA
B6: chr17:57759754:57759755:+_ENSG00000141367_ENST00000269122|hu_mus|motif|central (ssRNA)
RNA: GGGAGUUCUACAGUCCGACGAUCAUCAUAACAACGGUCACCAACUUGCUGAAUAUGAGCAUUAUUUGGCCCAUUGAUGAACUCUUCGGAUUCUGCAAGGCGGUUUGUUUUAGCCAGUGCAAAUAUCAAUUCUGUCUCCACAUACAACAGAGGAUUGAGCAUCA
B7: chr7:140710375:140710376:-_ENSG00000090263_ENST00000324787|hu_hu|motif|central (ssRNA)
RNA: GGGAGUUCUACAGUCCGACGAUCGUGGUGAUUUGGAUACCAAUCAUAAGUCUCCUUCUUCUUGGCCAAGGGCAGUUCACGGAACAGUUUCACCACUUUCAUAGACUUGGAAUUAGUAGGCCUGGUGACUUCACCAAAUAGCCGCAACAGAGGAUUGAGCAUCA
B8: chr2:115689366:115689367:-_ENSMUSG00000027210_ENSMUST00000074285|mus_hu|motif|central (ssRNA)
RNA: GGGAGUUCUACAGUCCGACGAUCCUUUGAAGAAGAGUCCCCCAAAAAUAAUAAUAAGAAUUGGCUUAUGAAGCACGAACGGUAAAGAUCUGUUUGAAACUAAAGGACACAUUUAUGGAGGAACAAAGGCCGGGCAUGAAAACACAACAGAGGAUUGAGCAUCA
B9: 22114058_22114178_5692_3pUTR_ENSG00000100030_ENST00000215832|human|control|control (ssRNA)
RNA: GGGAGUUCUACAGUCCGACGAUCUACAGCUGACAGUCUGAAGCAGAGGAAGAAAGCAGAGACGCAGAAUGACUGGCCCACAGCCAGCCGCAGUUAUAAGCAGGGGGUAGUUCUGAACCCAGCUGGAUGGGUCCAAGGCCUGUGCAACAGAGGAUUGAGCAUCA
B10: chr4:21803547:21803548:+_ENSMUSG00000028248_ENSMUST00000098238|mus_hu|motif|central (ssRNA)
RNA: GGGAGUUCUACAGUCCGACGAUCCACUUCAAGAUUGAUCUAAAAAACAUUUUAAGAUAUGAAAAUGUUAUACAACUUAUCGGUUACAAAUUAAUCAGAUAAUUCUGCAAUUAGGUACACUGUGUUAGCUCGCCUACAUAAAAACAACAGAGGAUUGAGCAUCA
B11: chr5:44151052:44151053:-_ENSMUSG00000039753_ENSMUST00000047857|mus_hu|motif|central (ssRNA)
RNA: GGGAGUUCUACAGUCCGACGAUCGUCAGUCUGGGUAAGAUCCAGAUGCUCCAGGUUAGGACAAAGCUCUAAAAUCUGCCGGACCAUUUUGCUGGAAACUGCAGAGCUGUAUGCUAAUACUAAGGUUUUUACAGAAGUACCAACCAACAGAGGAUUGAGCAUCA
B12: chr3:118931466:118931467:-_ENSG00000121578_ENST00000480814|hu_mus|FALSE|FALSE (ssRNA)
RNA: GGGAGUUCUACAGUCCGACGAUCCACUGUGAUGUUGGCAUAUAAAGGGUUGUGCUCCACAGAGAGUAAUCUGUAAGAACAACUCGAUAAGCCAUCUGUUUUCCAGACCCGGGACAUCUGUUGCAACAGCUUCAUUCGGCCCAUCAACAGAGGAUUGAGCAUCA
B13: chr4:59614313:59614314:+_ENSMUSG00000028383_ENSMUST00000030078|mus_mus|FALSE|FALSE (ssRNA)
RNA: GGGAGUUCUACAGUCCGACGAUCGUUGCCAGUAAAACUUUUUGGCCUUUUGAAAAUGGAAUAUGCAGCGUCCGCAAUGAUGUCAACUUUUCUACAUUGGUUUUCAACACCAGAUCCUCCCAGCAUAUCCAUAGCAGCAGUGUGCAACAGAGGAUUGAGCAUCA
B14: chr16:46990815:46990816:-_ENSG00000069345_ENST00000563158|hu_mus|FALSE|FALSE (ssRNA)
RNA: GGGAGUUCUACAGUCCGACGAUCUCGAAAUGAAGAUGUAAAGCUCUGUGGUUAGUUUAAAUUAUACACUCUGUGGAUACGAUACCAAUUUUAGAAGUUACACAUAGAUCAACAGAUGUCCAUCAGUCCAUCUGGACUUAUCAGCAACAGAGGAUUGAGCAUCA
B15: 30560643_30565594_417_CDS_ENSG00000104687_ENST00000414019|human|control|control (ssRNA)
RNA: GGGAGUUCUACAGUCCGACGAUCACCACCUGUGGCGAUCAGGAUGUGUGGGGCGGUGUACUUUUUCCCACUGACCUCUAUUGUGGGCUUGGGAUCACUCGUGAAGGCUGCAUGGCCACGGAUGAUUUCUAUAUGGGACUUGGUCAACAGAGGAUUGAGCAUCA
B16: chr9:95013113:95013114:-_ENSG00000196305_ENST00000443024|hu_hu|FALSE|FALSE (ssRNA)
RNA: GGGAGUUCUACAGUCCGACGAUCUUCAGUGAGAAAAGGUGUGUAGGGAGCCAUAAGUCUGCAAAGAGAAAGCAGAACACUAAACAAGGUUUCUAGGGCCAUGACACAAUCCUCCAUCCCAUUUUCACCCUUUAAUCUUCUGCGCAACAGAGGAUUGAGCAUCA
B17: chr5:128440902:128440903:+_ENSG00000066583_ENST00000173527|hu_mus|hu_hu_hu_mus_True|78_108 (ssRNA)
RNA: GGGAGUUCUACAGUCCGACGAUCUUGAACCGUGCUCCCAAGUCCUUUGGGGUAUUGUUCUGUUACAAUAACUGGAAUCCCUAAGAUCCGAGCUCCUUGCAACAGUCUCUGUCCCACACUAAUGAUGUCCCCAAAGUAUUUGAUCAACAGAGGAUUGAGCAUCA
B18: chr14:78183846:78183847:+_ENSG00000119705_ENST00000557342|hu_hu|hu_hu_hu_mus_False|18_38 (ssRNA)
RNA: GGGAGUUCUACAGUCCGACGAUCUCUCAGAAAUCUUUCUUCAUCAGAUGUUUGAGCUCCGUGCAAAGCCUUUGCUCUUUGAGCUUGAACGUGGAUCUUUACUCCAUAAAGCACUGUAUUUUCCUGUAAUUUUUUUUUUAAAGACAACAGAGGAUUGAGCAUCA
B19: chr8:104447970:104447971:+_ENSG00000164934_ENST00000297579|hu_hu|hu_hu_hu_mus_False|1_108 (ssRNA)
RNA: GGGAGUUCUACAGUCCGACGAUCAUAUACCUCCCUGCUUCGGCUCUUGUCCACAGGAAAGAUUCUAAUAGACUUAUCAAAGCUGGCAGACACAAAUUCCUUCCCAGUGGGAGAGUAGUCCACAUCAAGUACUGCAGAUACAUGCAACAGAGGAUUGAGCAUCA
B20: chr17:60770872:60770873:+_ENSG00000011028_ENST00000303375|hu_hu|hu_hu_hu_mus_True|1_88 (ssRNA)
RNA: GGGAGUUCUACAGUCCGACGAUCUCUUUAAAAAAAAAAAAAAAAAGUUUAAAAACAAUAGCACAUUUCGAGAAUCAAGAACUACAAUAGAGGGUCCGCUUUGAGUUUUUGUUCACAUCGUCCUGCACUGGGACACGACCAGGACAACAGAGGAUUGAGCAUCA
B21: chr8:74858975:74858976:-_ENSG00000154582_ENST00000284811|hu_mus|hu_hu_hu_mus_True|1_1 (ssRNA)
RNA: GGGAGUUCUACAGUCCGACGAUCGACCUUGUAGGUAAAAUACAUGCACACUUUUGAUAGCACAUGUGAGGGGAUCUCUCUAAAAUUGACCUCGUUGGUUUCAUUCUCAGCAAACUGACCUGGACCACUCAACAUAGCUUUUAUCAACAGAGGAUUGAGCAUCA
B22: 147080970_147081090_5547_CDS_ENSMUSG00000025272_ENSMUST00000087258|mouse|control|control (ssRNA)
RNA: GGGAGUUCUACAGUCCGACGAUCAGUGCCCAGUUCACCACCAAAAUCAGUGUUAGUGUUUAGUCCACCAUUGAAGCCAGCACUGUUACCCAGUCCUCCAUUGAAGUCAGCAUUAUGAUUUAGUCCACCACUGAAAUCCGUGCUCAACAGAGGAUUGAGCAUCA

The binders below were run against T1, UNK ZnF1-3 (assay: nsRBNS (natural sequence RNA bind-n-seq); RBNS binding buffer (assumed for nsRBNS): 25 mM Tris pH 7.5, 150 mM KCl, 3 mM MgCl2, 0.01% Triton X-100, 500 ug/ml BSA, 20 U/ml SUPERase-In, 4 C; UNK is unkempt and MSI1 is Musashi-1; names of the RNAs are library labels; protein concentration not given here; high values mean tight binding).

Row | Binder | binding signal
1 | B1 | 0.972 enrichment R
2 | B2 | 1.08 enrichment R
3 | B3 | 1.99 enrichment R
4 | B4 | 0.961 enrichment R
5 | B5 | 1.01 enrichment R
6 | B6 | 0.685 enrichment R
7 | B7 | 0.948 enrichment R
8 | B8 | 2.61 enrichment R
9 | B9 | 1.59 enrichment R
10 | B10 | 0.848 enrichment R
11 | B11 | 1.28 enrichment R
12 | B12 | 0.718 enrichment R
13 | B13 | 1.03 enrichment R
14 | B14 | 0.874 enrichment R
15 | B15 | 0.73 enrichment R
16 | B16 | 1.08 enrichment R
17 | B17 | 0.529 enrichment R
18 | B18 | 0.73 enrichment R
19 | B19 | 0.947 enrichment R
20 | B20 | 3.13 enrichment R
21 | B21 | 0.84 enrichment R
22 | B22 | 0.885 enrichment R
